According to the supplement of paper PMC7335073:
The full ranking holds about 4,100 sequences; the median of “relative CpG methylation activity (normalised to average over all NNNCGNNN flanks)” is about 0.87, and the highest 2% start at about 2.4. This is one part of the list.

The sequences below were run against DNMT3A catalytic domain (mouse) (UniProt O88508) (assay: relative CpG methylation activity (normalised to average over all NNNCGNNN flanks) (relative (1 = mean)); higher = more methylation of the central CpG). Details: system: in vitro, murine catalytic domain; CpG state: hemimethylated substrate pool; residues: 608-908.
In short: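 Pooled dsDNA substrates with a central CpG inside 10 random flanking nucleotides were methylated by murine DNMT3A or DNMT3B catalytic domain with 0.8 mM S-adenosyl-L-methionine in HEPES pH 7.5 buffer for 60 min at 37 °C. The DNA then went through proteinase K, BsaI-HFv2 digestion, hairpin ligation, bisulfite conversion and two-step PCR before Illumina sequencing. Relative methylation activity is the average methylation of each context with three flanking bases per side, divided by the mean over all contexts. Each experiment had two independent repeats.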

Sequence | relative CpG methylation activity
GGACGCAT | 0.571
AGACGAAC | 1.11
ATCCGGGA | 0.766
CGGCGCTA | 0.829
GGTCGGAA | 0.575
ATACGGCG | 1.65
TCTCGACT | 0.991
GATCGTTA | 0.186
GTCCGTCG | 2.53
CGCCGCTT | 1.55
GAGCGTGT | 0.238
ATGCGGCC | 1.64
ACACGGCT | 1.69
TCCCGGCA | 1.1
GGGCGAGG | 0.806
TATCGGGT | 0.5
TCCCGACT | 1.14
CCGCGCTG | 1.07
GACCGGAA | 0.936
TGTCGGAA | 0.614
GATCGCCA | 0.923
ACCCGTCT | 1.74
ATGCGCAC | 1.77
CTTCGACA | 1.22
GCCCGGGC | 1.04

Sequence | relative CpG methylation activity
TATCGCGT | 0.597
TAACGTCG | 1.31
TCTCGCCA | 1.59
TTTCGTAT | 1.15
GAACGCTG | 0.497
TACCGGCT | 0.827
TTACGCGG | 0.654
CAACGGTC | 1.03
ACACGTAC | 1.71
GGGCGTCC | 1.45
CTACGTCC | 2.8
GGCCGAGA | 0.644
GTTCGTTA | 1.37
AATCGTAT | 0.211
GACCGGCA | 0.909
ACACGGGT | 1.06
GATCGCAG | 0.248
ACACGCCC | 2.4
AATCGGCC | 0.419
AGGCGTAA | 0.665
ACTCGGCT | 1.23
AGACGTCA | 1.03
AATCGTGT | 0.201
ATGCGACA | 1.23
GGCCGGCC | 0.968

Sequence | relative CpG methylation activity
CCACGGCA | 1.62
TGACGTAT | 0.326
GGGCGGGG | 0.227
AGCCGTTG | 0.402
CACCGAAA | 1.16
ACCCGACG | 1.17
GCTCGTGA | 0.694
CCTCGGTC | 1.02
CTTCGTCG | 1.71
GCTCGGCG | 0.833
ACTCGTAG | 0.496
AGCCGATC | 1.11
TGCCGAGA | 0.951
GACCGACG | 0.672
GGCCGGGC | 0.75
TTACGCTA | 1.94
CTCCGTGA | 0.887
CATCGTGC | 0.26
AACCGTCG | 1.34
GAGCGGGA | 0.397
TGTCGCTA | 1.02
TGCCGTAG | 0.376
GCACGCGA | 1.28
AGTCGGGT | 0.417
GCGCGAGC | 1.43

Sequence | relative CpG methylation activity
GTGCGGGG | 0.161
CCGCGGAT | 0.894
GCCCGGAG | 0.506
GCCCGGCT | 1.16
CGACGATA | 0.488
AGACGAAG | 0.459
ATTCGTAT | 0.724
TTCCGGCC | 1.99
CGCCGCTG | 0.894
TGTCGCTC | 1.44
CACCGCGG | 0.261
TTCCGTGG | 0.603
CCGCGTGC | 0.476
AGTCGTCT | 0.604
AGTCGCGA | 0.305
TTACGCTG | 1.74
TGCCGGGA | 0.714
CAGCGCCG | 0.976
TTGCGATC | 2.29
GGGCGATC | 1.48
ATCCGGTG | 0.96
TGTCGCGG | 0.189
AAGCGCTT | 1.28
CGACGTTA | 0.702
ACTCGAAA | 1.12

Sequence | relative CpG methylation activity
CCACGTCT | 1.61
GAGCGGAT | 0.465
TCCCGAAA | 1.21
AATCGCCA | 0.81
GTACGCCA | 2.14
TTCCGGTG | 1.5
TAGCGGCA | 0.714
TATCGGGA | 0.248
GCGCGAAG | 0.42
TTGCGGAA | 1.22
ACCCGCTT | 1.82
CCTCGTTG | 0.606
GCCCGAGA | 1.08
TGCCGTCA | 1.1
GGACGAAC | 1.36
CGGCGGGG | 0.263
GATCGGTC | 0.604
CTGCGCAC | 1.56
CAACGGTT | 0.815
TGGCGGCG | 0.784
AATCGATT | 0.376
CTGCGTAC | 1.64
ACACGTGC | 0.945
CAACGGTA | 0.845
TATCGTAA | 1.11

Sequence | relative CpG methylation activity
CACCGCAC | 1.11
CGCCGAGT | 0.664
ACGCGGTA | 0.802
GAACGCTA | 0.855
CTACGGTC | 1.92
TTGCGCAG | 0.966
GTACGGAA | 1.75
GTACGGTT | 1.45
CTTCGCGA | 1.31
CAGCGCTC | 1.08
AGCCGGCC | 0.556
GGTCGAGA | 0.379
TCCCGTTG | 0.752
AATCGTCC | 0.837
GCCCGGAA | 0.896
CCTCGGGT | 0.941
AAACGGAC | 0.891
TTCCGTGT | 0.462
CCTCGCAC | 1.77
TCTCGACC | 1.16
ACACGACA | 1.69
AGCCGGCG | 0.532
AAACGCTC | 1.44
CTTCGGAC | 1.26
TTTCGGGT | 0.729

Sequence | relative CpG methylation activity
AGGCGTTC | 0.467
ATTCGAGC | 1.1
CCACGATC | 1.52
ACGCGTTT | 0.798
TGCCGAAA | 0.797
TTACGAGA | 1.93
TGTCGAAA | 0.438
GGTCGCTT | 1.03
TTCCGGTA | 2
CGGCGTGT | 0.143
TATCGTGC | 0.586
CCCCGCGT | 1.11
ACACGTCT | 1.97
AAACGAGC | 0.959
GCTCGTTA | 0.56
AGACGTAG | 0.32
GGCCGCCG | 1.34
AAACGATC | 0.829
CTCCGATC | 2.41
GAGCGCGT | 0.586
GCTCGACT | 0.868
TAACGTGC | 0.399
CTACGGCG | 1.56
ATTCGAGA | 0.916
GCCCGAAC | 1.48

Sequence | relative CpG methylation activity
CGTCGATT | 0.461
TCGCGGGC | 0.632
ATACGCGA | 1.33
GGGCGGGC | 0.364
TAACGAGC | 1.14
CTACGTGA | 1.2
TAACGACT | 0.585
CTTCGTAT | 1.06
TTTCGTGA | 0.781
AGCCGAGT | 1.02
GCGCGCAA | 1.14
GGTCGGAT | 0.139
CGCCGTCC | 1.42
AGTCGTGA | 0.125
AAACGCAG | 0.29
CAGCGTTT | 0.267
CTCCGCCA | 2.37
ACACGCTG | 1.74
CCTCGATG | 0.455
CCCCGCGA | 0.961
CGACGCTT | 1.38
TAGCGTCT | 0.714
CCACGCGC | 1.71
TTACGACG | 1.53
TGTCGGCT | 0.492

Sequence | relative CpG methylation activity
GTCCGTTC | 1.47
CTACGATG | 1.2
AACCGGAC | 0.719
GAACGTCT | 1.31
GGCCGAAT | 0.346
AATCGAGG | 0.352
TCCCGTCA | 1.49
GAACGACC | 0.912
GCTCGAAG | 0.538
ATCCGTTG | 0.462
ATACGATA | 1.71
TCACGAAG | 0.777
CGACGTGT | 0.11
CTCCGACA | 1.71
GCGCGTAC | 0.719
AAACGGGA | 0.59
TGCCGGCA | 0.798
CAGCGCGA | 0.301
ACCCGTAG | 0.643
GGCCGTTA | 0.476
TGCCGGAG | 0.479
TGACGCGG | 0.155
CCGCGCGA | 0.556
GGACGCAG | 0.28
TGACGAGC | 1.03

Sequence | relative CpG methylation activity
GGCCGAAG | 0.685
AAGCGGCA | 0.628
GTACGTTA | 1.88
TGCCGTCC | 1.48
ACTCGAGG | 0.523
CTGCGACC | 1.64
TAGCGAAT | 0.229
TCCCGCAC | 1.26
CAGCGGAA | 0.593
ACCCGGGA | 0.789
GGTCGGAG | 0.106
GCACGCCC | 2.31
GGCCGCTG | 0.873
CGGCGTTT | 0.165
GTGCGAAT | 0.763
AGGCGCTA | 0.935
CACCGTTA | 0.751
CTCCGCCG | 2.31
ACGCGATA | 1.01
TTACGGCG | 1.26
AATCGCAG | 0.0816
GGGCGATA | 0.633
TGCCGCGG | 0.2
CTTCGCAT | 1.58
AAACGACT | 0.674

Sequence | relative CpG methylation activity
GTGCGCTA | 1.91
GTTCGGGC | 0.859
GTACGTGA | 1.49
CGTCGGGT | 0.53
ATACGGTG | 0.775
TGACGTCT | 1.07
ATTCGCCA | 1.42
CTTCGAGC | 1.36
CGCCGGGC | 0.825
TTTCGCTG | 1.2
ATCCGCCT | 2.5
CTCCGAGT | 1.62
TATCGAGA | 0.41
CTGCGACT | 1.28
GTACGTCC | 2.41
TGGCGAAG | 0.099
ACCCGAAG | 0.854
GGGCGCCG | 1.5
TCACGTGT | 0.625
AATCGCCT | 1.61
ACCCGCGC | 1.28
TGTCGTTG | 0.786
CTGCGTGC | 0.932
TCCCGCCT | 1.94
AGGCGCAC | 0.982

Sequence | relative CpG methylation activity
GATCGTAT | 0.385
CGACGTCG | 1.28
TTGCGTGG | 0.368
AGTCGTAT | 0.177
ATCCGATG | 1.26
GGGCGGCC | 1.61
ATCCGCTT | 2.13
CTCCGCAG | 1.21
ATACGTGG | 0.357
TGTCGGGC | 0.635
AATCGGCG | 0.164
GCGCGTTT | 0.575
GTCCGTTA | 1.59
TAACGTGG | 0.025
TTCCGGAC | 1.58
TCGCGAAT | 0.484
GCACGAAC | 1.57
GTGCGTGT | 0.469
GTGCGTTT | 1.12
TTGCGTAC | 1.47
GTTCGGTC | 1.23
CCTCGGAC | 1.41
ACTCGACG | 0.638
CTGCGACA | 1.34
CATCGATG | 0.296

Sequence | relative CpG methylation activity
TTGCGAGG | 0.574
CCACGGGC | 1.41
TCTCGTGT | 0.225
TGCCGCAT | 0.85
ACACGTTA | 1.44
GTCCGCCG | 2.46
ACCCGCGG | 0.374
GATCGATC | 0.766
CGCCGAGC | 1.37
GCCCGATC | 1.42
ATCCGAGG | 1.03
ATGCGAAG | 0.538
AATCGATG | 0.127
GCACGAGC | 1.61
GCGCGCTG | 1.34
GTTCGTAC | 0.882
CGGCGAGT | 0.533
AAGCGGTC | 0.791
CTTCGCTC | 2.46
TGGCGTAT | 0.389
ATACGCGG | 0.901
CTGCGTGG | 0.317
CTCCGCAC | 1.88
ACGCGCCC | 2.26
CTTCGACT | 1.34

Sequence | relative CpG methylation activity
ACACGAGT | 1.46
TCACGCAC | 1.62
GCCCGCTG | 1.4
TCCCGCTG | 1.13
CTGCGGGT | 1.03
TGACGCCG | 1.39
TCGCGCTG | 1.41
TTCCGGCG | 1.94
ATGCGAAT | 1.04
ACCCGGAA | 0.69
TGCCGACA | 0.909
AGCCGCAA | 0.468
TCACGAGA | 1.04
AGTCGGCC | 0.721
ATCCGATT | 1.64
AAACGAGT | 0.644
TGGCGCCA | 0.851
TGACGGAA | 0.775
CGGCGAGC | 0.729
